# Measurements as given in PubChem BioAssay AID1159614 (National Center for Advancing Translational Sciences (NCATS), 2016).
# The campaign covered roughly 45,000 compounds. About 65 (0.1%) were called active. Calls follow the shape of the dose curve; as a rule, active = well fitted activation curve with a large enough effect; inconclusive = small, poorly fitted or top-dose-only effect; inactive = no such curve, though single readings can be large or run the other way. The list shows a part of the results.
# Molecular target: Galactocerebrosidase (Homo sapiens) (UniProt P54803)
# Assay: A Novel Cell-Based Assay to Identify Small Molecules for B -Galactocerebrosidase; also: 0% is about no effect; nearly all actives have a fitted effect of over 65% in size
# Conditions: 145M-Twi-hGALC-G270D cells (Twitcher mouse brain line with human GALC G270D), HMU-beta-Gal fluorescence, 48 h; series mostly up to 57.5 µM; activation: at the top concentration
# Method in brief: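 Mutant human GALC (G270D), stably expressed in a Twitcher mouse brain cell line lacking endogenous GALC, is measured in live-treated cells via 6-hexadecanoylamino-4-methylumbelliferyl-β-galactoside hydrolysis (0.1 mM final, pH 5.2) with fluorescent detection.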
# UniProt P54803, sequence (P54803 whole entry, looked up): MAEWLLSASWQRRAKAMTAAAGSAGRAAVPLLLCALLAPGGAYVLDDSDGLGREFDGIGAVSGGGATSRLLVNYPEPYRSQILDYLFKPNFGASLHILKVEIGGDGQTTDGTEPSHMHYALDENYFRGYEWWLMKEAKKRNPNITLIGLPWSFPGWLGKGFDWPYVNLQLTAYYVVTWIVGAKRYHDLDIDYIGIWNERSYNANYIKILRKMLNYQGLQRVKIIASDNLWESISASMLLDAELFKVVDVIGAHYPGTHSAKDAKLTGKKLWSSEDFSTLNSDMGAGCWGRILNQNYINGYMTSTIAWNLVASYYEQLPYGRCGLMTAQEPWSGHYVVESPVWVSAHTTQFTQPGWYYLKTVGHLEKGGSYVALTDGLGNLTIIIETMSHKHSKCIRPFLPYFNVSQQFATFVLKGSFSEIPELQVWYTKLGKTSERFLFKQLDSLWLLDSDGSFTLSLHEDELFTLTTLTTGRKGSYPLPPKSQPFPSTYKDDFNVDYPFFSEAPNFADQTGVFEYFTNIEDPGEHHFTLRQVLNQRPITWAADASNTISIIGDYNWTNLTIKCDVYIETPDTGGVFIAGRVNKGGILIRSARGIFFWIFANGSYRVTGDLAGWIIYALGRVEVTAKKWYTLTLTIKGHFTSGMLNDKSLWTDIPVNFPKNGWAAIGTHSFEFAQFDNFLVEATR
row,Compound,activation
1,CCCOc1cccc(C(=O)Nc2cccc(NC(=O)c3ccc(C(C)(C)C)cc3)c2)c1,inactive: -18.6%
2,COc1ccc(-c2cc(C(F)(F)F)n3nc(C(=O)Nc4cc(Cl)cc(Cl)c4)cc3n2)cc1,inactive: -17.3%
3,COc1cc(-c2ccno2)ccc1S(=O)(=O)N1CCN(c2ccc(C(C)=O)cc2)CC1,inactive: -8.82%
4,CCCCC(=O)Nc1ccccc1C(=O)OCc1cc(=O)n2nc(C3CCCCC3)sc2n1,inactive: -4.34%
5,CCOc1ccc(OC(=O)c2cn(-c3ccc(C)cc3)c(=O)c3ccccc23)cc1,inactive: -10.7%
6,COc1ccc(-c2nc3c4ccccc4n(CC(=O)Nc4cc(F)ccc4F)c(=O)n3n2)cc1,inactive: -13.5%
7,CCn1cc(S(=O)(=O)c2cc(C)cc(C)c2)c(=O)c2cc(F)c(N3CCCC3)cc21,inactive: -7.9%
8,COc1ccc(N2CCN(S(=O)(=O)CCNC(=O)Cc3ccc(Cl)cc3)CC2)cc1,inactive: -10.9%
9,CCOc1ccc(CCNC(=O)c2nnc(Cc3cc(OC)c(OC)c(OC)c3)o2)cc1OCC,inactive: -7.38%
10,CCOC(=O)c1c(NC(=O)c2nc(SC(C)C)ncc2Cl)sc2c1CCCC2,inactive: -8.67%
11,O=c1cc(N2CCN(c3ccc(F)cc3)CC2)[nH]c(=O)n1-c1ccc(Br)cc1,inactive: -17.5%
12,Cn1c(SCc2ccc(C(F)(F)F)cc2)nc2c([nH]c3ccccc32)c1=O,inactive: -12.8%
13,Cc1ccccc1Cn1c(=O)n(Cc2ccc(Cl)cc2)c(=O)c2cccnc21,inactive: 13.2%
14,COc1cc(Cl)c(C)cc1NC(=O)c1sc2nc3n(c(=O)c2c1C)CCCCC3,inactive: -6.75%
15,COc1ccc(OC)c(NC(=O)CSC2=Nc3ccccc3C3=NC(CC(=O)NCc4ccc5c(c4)OCO5)C(=O)N23)c1 (stereo not drawn),inactive: -2.83%
16,CC(=O)c1c(C)oc2c(Cl)cc(NS(=O)(=O)c3ccc(Cl)cc3)cc12,inactive: -21.8%
17,CN(C)c1ccc(C(CNS(=O)(=O)c2ccccc2)N2CCc3ccccc32)cc1 (stereo not drawn),inactive: -16%
18,COc1cc(C(=O)NCC(c2cccnc2)N2CCc3ccccc32)cc(OC)c1OC (stereo not drawn),inactive: -8.06%
19,COc1cc(NC(=O)N2CCC(CN3CCCC3)CC2)cc(OC)c1OC,inactive: -11.8%
20,O=C(CSc1nccn1-c1ccc(F)cc1)Nc1ccc(OC(F)(F)F)cc1,inactive: -5.84%
21,CCOC(=O)c1c(-c2ccc(Br)cc2)csc1NC(=O)c1ccccc1F,inactive: 7.35%
22,CCN(CC)C(=O)Cn1c(=O)n(Cc2ccc(C(=O)NCc3ccccc3Cl)cc2)c(=O)c2ccccc21,inactive: 13.2%
23,Cc1ccc2c(C)c(C(=O)N(Cc3ccc(Cl)cc3)C3CCS(=O)(=O)C3)oc2c1 (stereo not drawn),inactive: -10.1%
24,CCCNc1c(NC(=O)c2ccc(OCCC)cc2)c(=O)oc2ccccc12,inactive: -24.8%

row,Compound,activation
1,O=C1[C@@H]2CSC(c3ccc(C(F)(F)F)cc3)N2C(=O)N1c1ccccc1 (stereo partly drawn),inactive: -10.8%
2,O=C1CN(C(=O)c2ccccc2C(F)(F)F)C(c2ccccc2)c2cc(F)ccc2N1 (stereo not drawn),inactive: -7.13%
3,COc1cc2c(cc1OC)C(COc1ccc3c(C)cc(=O)oc3c1)N(C(=O)c1ccc(Cl)cc1)CC2 (stereo not drawn),inactive: -14.6%
4,COc1ccc(-c2nc3ccccc3s2)cc1NC(=O)COc1ccc(C)cc1,inactive: -4.1%
5,CCOc1ccc(NC(=O)CSc2nccn2Cc2ccco2)cc1,inactive: -28.4%
6,CCc1ccccc1NC(=O)c1ccc2c(O)c(S(=O)(=O)c3ccccc3)c(=O)[nH]c2c1,inactive: -10.1%
7,COc1ccc(NC(=O)c2cc3nc(-c4ccc(C)c(C)c4)cc(C(F)(F)F)n3n2)cc1,inactive: 8.48%
8,COc1ccccc1CNC(=O)c1oc2ccc(S(=O)(=O)N3CCCCC3)cc2c1C,inactive: -19.8%
9,CCC1CCCCN1S(=O)(=O)c1ccc(C(=O)Nc2sc3c(c2C(=O)NC)CCC3)cc1 (stereo not drawn),inactive: -15.8%
10,COc1ccc(OCC(=O)OCc2cc(=O)n3cc(C)sc3n2)cc1,inactive: 4.01%
11,Cc1ccc(N(CC(=O)NCc2ccc(Cl)cc2)S(=O)(=O)N(C)C)cc1,inactive: -10.6%
12,COc1ccc(NC(=O)CSc2nc(-c3ccc(OC)cc3)[nH]c2-c2ccc(OC)cc2)cc1,inactive: -10%
13,CC(C)(C)NCC(O)COc1cccc2c1CCC(=O)N2 (stereo not drawn),inactive: -14.7%
14,Cc1ccc(CSc2ncc(Cl)c(C(=O)NCCc3ccc(S(N)(=O)=O)cc3)n2)cc1,inactive: -4.87%
15,CCOC(=O)C1CCN(C(=O)CCS(=O)(=O)c2cc3c(cc2Cl)NC(=O)CO3)CC1,inactive: 6.26%
16,Cc1ccc(C(=O)Nc2cccc(-c3nc4cccnc4s3)c2C)cc1,inactive: -14.4%
17,Cc1cccc(CN2C(=O)c3ccccc3S(=O)(=O)c3ccc(C(=O)NCCC4=CCCCC4)cc32)c1,inactive: 0.308%
18,COC(=O)c1ccc(Nc2nnc(-c3ccc(C)c(S(=O)(=O)N4CCN(C)CC4)c3)c3ccccc23)cc1,inactive: -19.4%
19,COc1ccc(-c2cc(OC(=O)c3ccc(Cl)cc3)c3c(C)oc(C)c3c(=O)c2)cc1,inactive: -14.3%
20,CCCN1CCN(CCNC(=O)Nc2ccc(OC)cc2OC)CC1,inactive: -7.49%
21,O=C(CC1C(=O)N(c2ccccc2)C(=O)N1CCC1=CCCCC1)Nc1ccc(F)cc1 (stereo not drawn),inactive: -19%
22,CC(=O)N1CCN(c2csc3ccc(F)cc3c2=O)CC1,inactive: -11.4%
23,CCc1ccc(C(=O)c2cn(CC(=O)Nc3ccc(F)cc3)c3ccc(OC)cc3c2=O)cc1,inactive: -16.3%
24,COc1ccc(NC(=O)Cn2c(=O)n(C(C)C)c(=O)c3oc4ccccc4c32)cc1Cl,inactive: -4.21%

row,Compound,activation
1,O=C1CN(C(=O)Cc2ccc(F)cc2)C(c2ccccc2)c2cc(Cl)ccc2N1 (stereo not drawn),inactive: -10.1%
2,Cc1ccccc1NC(=O)CSc1nc(-c2ccccc2C)nc2cc(=O)[nH]n12,inactive: -15.8%
3,CCOc1ccc(NC(=O)N2CCN(S(=O)(=O)c3ccc4c(ccn4C)c3)CC2)cc1,inactive: -8.61%
4,COCCNC(=O)Cn1nc(N2CCN(c3ccccc3OC)CC2)ccc1=O,inactive: -11%
5,COc1ccccc1N(CC(=O)NCCSCc1ccccc1)S(=O)(=O)c1ccc(C)cc1,inactive: -8.76%
6,Cc1cc(C)c(NC(=O)C(C)n2nc(-c3ccc(C)c(C)c3)ccc2=O)c(C)c1 (stereo not drawn),inactive: -18.1%
7,Cc1ccc(NC(=O)Cc2ccc(-n3c(C)nc4cccnc43)cc2)cc1C,inactive: 19.2%
8,Cc1cc(C)cc(OCC(=O)NCCc2nc3ccccc3[nH]2)c1,inactive: -10.7%
9,Brc1cccc(CNCCSc2nnnn2-c2ccccc2)c1,inactive: -13.6%
10,CCc1ccccc1N(C)C(=O)Cc1c(C(=O)O)c(C)cn1C,inactive: -4.36%
11,Cc1nn(-c2ccccc2)c(OC(=O)C(C)C)c1Sc1ccccc1,inactive: -27.6%
12,COc1ccc(-c2cc(C(C)=O)c(C)n2CCC(=O)NCc2ccccc2OC)cc1,inactive: 0.359%
13,CCOC(=O)c1c(C)oc2ncnc(N3CCN(c4ccccc4OC)CC3)c12,inactive: -13.7%
14,COc1ccc(Cn2c(SCc3ccc(C(=O)NC4CCCC4)cc3)nc3ccncc32)cc1,inactive: -3.41%
15,O=C(COc1ccc2oc3c(c2c1)CCCC3)Nc1ccc(Br)cc1,inactive: -21.8%
16,Cc1ccc(Cl)cc1NC(=O)C(C)n1nnc2sc(-c3ccccc3)cc2c1=O (stereo not drawn),inactive: -9.18%
17,COC(=O)c1cccc(-n2c(CCC(=O)O)ccc2-c2ccc(OC)cc2)c1,inactive: -11%
18,CCOC(=O)c1cc(-c2ccccc2)n(CCCC(=O)Nc2ccc(C(C)C)cc2)c1C,inactive: -27.8%
19,COc1cccc(CNC(=O)CCc2cn(Cc3ccccc3Cl)c3ccccc23)c1,inactive: -1.2%
20,CC(=O)N1CCc2cc(Br)cc(S(=O)(=O)N3CCN(c4cccc(C(F)(F)F)c4)CC3)c21,inactive: -8.81%
21,COc1cc(C(CC(=O)NCc2ccc(F)cc2)N2Cc3ccccc3C2=O)cc(OC)c1OC (stereo not drawn),inactive: -5.4%
22,COc1ccc(NC(=O)Cn2c(=O)n(-c3ccc(OC)c(OC)c3)c(=O)c3ccccc32)cc1,inactive: -1.6%
23,COc1ccccc1NC(=O)C1=C(C)Nc2c(C(=O)Nc3ccc(F)cc3)cnn2C1c1cccc([N+](=O)[O-])c1 (stereo not drawn),inactive: 2.49%
24,CCCCN(C)c1nc2c(S(=O)(=O)c3ccc(CC)cc3)nnn2c2ccc(Cl)cc12,inactive: -8.05%

row,Compound,activation
1,COc1ccccc1CNC(=O)C1CCCN(c2nc3ccccc3n3cccc23)C1 (stereo not drawn),inactive: -4.18%
2,CCCCOc1ccc(-c2nn(-c3ccccc3)cc2C2NC(=O)NC(C)=C2C(=O)OC)cc1 (stereo not drawn),inactive: 27.9%
3,COc1ccc(Cl)cc1C(=O)Nc1sc2c(c1C(=O)OC(C)C)CCCC2,inactive: -23.8%
4,O=C(C1CC1)N1CCc2cc(Br)cc(S(=O)(=O)N3CCN(c4cccc(C(F)(F)F)c4)CC3)c21,inactive: -13%
5,Cc1cccc(N2CCN(c3ncnc4c3nc3n4CCCCC3)CC2)c1C,inactive: -6.17%
6,CCC(=O)N1CCc2cc(Br)cc(S(=O)(=O)N3CCC(C(=O)NCCCOC(C)C)CC3)c21,inactive: -9.98%
7,CCOC(=O)c1ccc(NC(=O)c2c(-c3c(F)cccc3Cl)noc2C)cc1,inactive: 0.791%
8,COc1ccc(C2CC(=O)c3cc(-c4nc(-c5cccc(Cl)c5)cs4)c(=O)[nH]c3C2)cc1OC (stereo not drawn),inactive: -14.8%
9,COC(=O)c1ccccc1NC(=O)c1ccc(COc2ccccc2Cl)o1,inactive: -10.1%
10,CCOc1ccc(NC(=O)c2ccc(NC(=O)N3CCSc4ncccc43)cc2)cc1,inactive: -6.74%
11,COc1ccc(C(F)(F)F)cc1NC(=O)c1sc2nc(-c3cccs3)ccc2c1N,inactive: -10.6%
12,CC(=O)c1ccc(N2CCN(c3ncnc4c3c(-c3ccccc3)cn4-c3cccc(C)c3)CC2)cc1,inactive: -0.993%
13,Cc1noc(/C=C/c2cccs2)c1S(=O)(=O)N1CCC(C(=O)Nc2ccc(F)c(Cl)c2)CC1,inactive: -11.9%
14,CCn1c(C(=O)NCCc2ccc(OC)c(OC)c2)cc2sc(Cl)cc21,inactive: -27.7%
15,CCOC(=O)c1cnn(-c2ccc(C(=O)Nc3cc(OC)c(OC)c(OC)c3)cc2)c1N,inactive: 2.04%
16,CSc1ncc2c(n1)-c1ccccc1N(Cc1ccc(Cl)cc1)S2(=O)=O,inactive: -5.65%
17,O=C(CSc1ccccc1)N1CCc2c([nH]c3ccccc23)C1c1ccc(F)cc1 (stereo not drawn),inactive: -38.6%
18,CC1CCN(S(=O)(=O)c2cn(CC(=O)Nc3cccc(C(F)(F)F)c3)c(=O)c3ccccc23)CC1,inactive: -12.3%
19,O=C(Cn1cc(C(=O)c2ccco2)c2ccccc21)Nc1ccc(Br)cc1,inactive: -17.9%
20,Nc1c(-c2nc(-c3cccs3)no2)nnn1-c1ccc(Cl)cc1,inactive: -12.6%
21,O=C(NC1CCCCC1)c1ccc(Cn2c(SCc3ccccc3F)nc3cccnc32)cc1,inactive: -4.55%
